From the supplement of paper PMC4166925
± gives the standard deviation of the averaged measurements. Whole data set: some 33,000 sequences, median “E-score (dimensionless, -0.5 to 0.5)” near -0.046, cut for the highest 2% near 0.36. Some of the results follow.

system: T1, SpTbr T-box DNA-binding domain (GST fusion); experiment: PBM E-score of 8-mer (E-score (dimensionless, -0.5 to 0.5)); Tbr is Tbrain of the sea star Patiria miniata (Pm) or the sea urchin Strongylocentrotus purpuratus (Sp); higher = stronger binding preference; most listed sequences are background and not binding sites; conditions: the construct has about 5 more residues each side
T1 sequence: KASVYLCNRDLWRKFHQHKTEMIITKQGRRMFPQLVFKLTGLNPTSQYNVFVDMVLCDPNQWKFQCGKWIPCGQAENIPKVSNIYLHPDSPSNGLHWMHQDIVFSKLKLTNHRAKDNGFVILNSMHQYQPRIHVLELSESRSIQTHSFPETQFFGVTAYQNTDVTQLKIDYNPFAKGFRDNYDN
Outline: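 Primer extension turned Universal Agilent oligonucleotide arrays double-stranded. They were incubated with 200 nM protein in PBS (pH 7.5); the protein was a GST-fused Tbr T-box DNA-binding domain expressed in BL21 E. coli at 20 °C and purified on glutathione. Every ungapped 8-mer was scored from the scanned, quantified probe intensities, and the Universal PBM Analysis Suite gave each an enrichment E-score averaged over duplicate arrays.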

Sequence	PBM E-score of 8-mer
AAGACTTG	-0.0194 ± 0.08
ACTTGATA	0.108 ± 0.039
CTGCGCCC	-0.162 ± 0.0045
CCTTTACC	-0.0178 ± 0.021
CGATTGCG	0.157 ± 0.013
GGTTATGA	-0.0949 ± 0.061
AAGCTCCC	-0.322 ± 0.0072
GGTGATCA	0.227 ± 0.0073
CAGGCTCA	-0.177 ± 0.03
ACGGAGTA	-0.323 ± 0.026
AGACATTG	-0.161 ± 0.068
TACTGAAA	-0.1869 ± 0.001
GGCTAAGA	-0.233 ± 0.0036
AGCGCCGG	-0.0591 ± 0.033
AACCAGTT	-0.00751 ± 0.037
CGTACACC	0.0648 ± 0.081
GCCCCGAC	-0.159 ± 0.06
AAAGGGCT	-0.198 ± 0.056
ACGCGCGT	0.293 ± 0.022
AGCCTCGG	-0.226 ± 0.0073
TATTATAA	0.0563 ± 0.02
AGATGTCA	0.139 ± 0.038
ACGTACAC	0.1791 ± 0.00065
CCAAAACG	-0.169 ± 0.086

Sequence	PBM E-score of 8-mer
TACACCAA	0.0641 ± 0.095
CCACAGGA	-0.22 ± 0.0092
AAGAGCCC	-0.278 ± 0.022
AGGCCACT	-0.0273 ± 0.0033
TCGCAGAA	0.00613 ± 0.035
AATAGTCT	-0.149 ± 0.054
TACCAAGA	-0.0491 ± 0.026
ATGTCGGC	-0.0704 ± 0.055
GCAGTTGA	-0.0353 ± 0.041
CCCCAGCA	-0.0347 ± 0.065
AACTGCCC	-0.108 ± 0.011
ACAGTTTC	0.143 ± 0.065
CTGGCGTC	0.101 ± 0.041
CACCCGAC	0.231 ± 0.033
ATTCCCTA	-0.192 ± 0.025
CCTTTTCA	0.081 ± 0.074
AAGCGCCA	0.123 ± 0.057
AGTCCAAA	-0.149 ± 0.066
ACTTCAAT	-0.0527 ± 0.032
ATTGTTGC	0.0572 ± 0.048
GCTACATA	-0.128 ± 0.046
CCACGACC	-0.173 ± 0.066
AGCTACTC	-0.117 ± 0.011
CACATTAC	0.205 ± 0.0094

Sequence	PBM E-score of 8-mer
AAAATGGG	-0.173 ± 0.048
AGCTCGGC	-0.0737 ± 0.003
AGCCACTA	0.075 ± 0.041
CGGTCATC	0.0532 ± 0.03
GAGAAGGA	-0.133 ± 0.0076
CACTATAG	0.146 ± 0.047
ACGTGCGG	0.206 ± 0.011
CTCTTCTA	-0.221 ± 0.083
ATATCCTA	-0.051 ± 0.047
GGATTTAC	-0.0213 ± 0.0077
CCCCACGG	-0.137 ± 0.017
GAATCTCA	0.00406 ± 0.035
GAAGGTAA	0.0468 ± 0.022
CTCAGATC	-0.0678 ± 0.025
ACGCCGTC	0.0176 ± 0.059
ACTAATGC	-0.00588 ± 0.022
AAGAACTG	-0.089 ± 0.092
AGCCTGAT	-0.0423 ± 0.035
GGCGTCGA	0.266 ± 0.04
ATACGCAC	0.153 ± 0.063
ATCGTCCA	-0.115 ± 0.02
TGTGGGAA	0.293 ± 0.038
CCGACCTC	-0.148 ± 0.046
CTCAGACA	0.0357 ± 0.066

Sequence	PBM E-score of 8-mer
AATCATTG	-0.00133 ± 0.019
CTTTAGAC	-0.109 ± 0.084
GTCTATTA	-0.237 ± 0.0052
CGTGGTTC	-0.173 ± 0.029
CACCCGTG	0.2 ± 0.006
AATTCCCC	-0.213 ± 0.067
TCCTGTCA	0.185 ± 0.023
CTAGGAAG	-0.184 ± 0.035
ACTGCCCC	-0.127 ± 0.098
AAGTTCGC	0.264 ± 0.03
TCAGTAGA	-0.0208 ± 0.049
AAGTACAT	-0.193 ± 0.047
GGAATGAA	-0.267 ± 0.059
CAGAATAA	0.0484 ± 0.089
AGGCCTAG	-0.17 ± 0.021
AGTTCAAA	-0.208 ± 0.046
AACCCTAT	-0.21 ± 0.046
GCATTATA	-0.166 ± 0.03
ATAAATAG	-0.167 ± 0.011
CTGCAGAC	-0.109 ± 0.029
GCTCAATA	-0.021 ± 0.057
CCAGATAC	0.00734 ± 0.012
